{"source": "paper PMC9804489", "about": "“Phase 1/1b Studies of UCB0599, an Oral Inhibitor of α‐Synuclein Misfolding, Including a Randomized Study in Parkinson's Disease” (Movement Disorders, 2022)", "key": {"[1]": {"system": "aggregated ASYN", "parameters": "method as in ref 16 = [16]; 16 Price D , Khan A , Angers R , et al. Preclinical in vivo characterization of UCB0599, an orally available, small molecule inhibitor of α‐Synuclein Misfolding in development for Parkinson's disease", "conditions": "chronic in‐vivo dosing, ASYN transgenic mice; cited from earlier work"}, "[2]": {"experiment": "UP0078 phase 1 food/ITZ study: safety and tolerability in healthy participants", "conditions": "UP0078"}, "[3]": {"experiment": "UP0078 phase 1 study: effect of food and ITZ on single-dose PK of UCB0599", "type": "in vivo, human", "conditions": "for Tmax / AUC(0-t) / Cmax / half-life: human, plasma, oral, UCB0599 180 mg single dose; for AUC(0-t): read-out: AUC(0–t), geometric mean (CV%); for Cmax: read-out: Cmax, geometric mean (CV%); for half-life: read-out: Half-life, geometric mean (CV%) (converted)", "experimental": "Statistical evaluations for all three studies were performed using SAS version 9.4 (SAS, Cary, NC, USA), and PK data were analyzed using Phoenix WinNonlin software (Certara, Princeton, NJ, USA). Continuous variables were summarized with number of participants, mean, standard deviation, median, minimum and maximum, and confidence intervals (CI) for the mean. Categorical variables were summarized with frequency counts and percentages."}, "[4]": {"experiment": "UP0077 phase 1b study: safety and tolerability in participants with PD"}, "[5]": {"conditions": "UP0077, UCB0599 180 mg/day, n=7"}, "[6]": {"conditions": "UP0077, UCB0599 360 mg/day, n=14"}}, "note": "Read-outs that look alike come from different tables or passages of the source.", "data": [{"smiles": "CCCC[C@H](Cc1c[nH]c2ccccc12)NC(=O)c1cnc(N2CCN(C)CC2)s1", "note": "[UCB0599]", "values": [{"measurement": "Aggregated ASYN levels", "setting": "[1]", "value": "decreased"}, {"measurement": "Functional motor endpoints associated with PD", "setting": "[1]", "value": "improved"}, {"measurement": "Participants reporting TEAEs", "setting": "[2]", "value": 27.3, "unit": "%"}, {"measurement": "TEAE considered related to the substance", "setting": "[2]", "value": 4.5, "unit": "%"}, {"measurement": "Vital signs, laboratory evaluations, physical examinations, or ECG findings", "setting": "[2]", "value": "No clinically significant abnormalities"}, {"measurement": "Increase of area under the curve on co‐administration with ITZ", "setting": "[3]; co‐administration with ITZ", "value": "2 to 3", "unit": "fold"}, {"measurement": "Increase of maximum plasma concentration on co‐administration with ITZ", "setting": "[3]; co‐administration with ITZ", "value": "~ 1.3 fold"}, {"measurement": "Tmax", "setting": "[3]; 180 mg, fasted, n=22", "value": 1.5, "unit": "h"}, {"measurement": "AUC(0-t)", "setting": "[3]; 180 mg, fasted, n=22", "value": 5.98, "unit": "µg·h/mL"}, {"measurement": "Cmax", "setting": "[3]; 180 mg, fasted, n=22", "value": 0.738, "unit": "µg/mL"}, {"measurement": "half-life", "setting": "[3]; 180 mg, fasted, n=22", "value": 9.3, "unit": "h"}, {"measurement": "Tmax", "setting": "[3]; 180 mg, fed, n=22", "value": 3, "unit": "h"}, {"measurement": "AUC(0-t)", "setting": "[3]; 180 mg, fed, n=22", "value": 6.52, "unit": "µg·h/mL"}, {"measurement": "Cmax", "setting": "[3]; 180 mg, fed, n=22", "value": 0.771, "unit": "µg/mL"}, {"measurement": "half-life", "setting": "[3]; 180 mg, fed, n=22", "value": 9.6, "unit": "h"}, {"measurement": "Tmax", "setting": "[3]; 180 mg, with ITZ, n=21", "value": 2, "unit": "h"}, {"measurement": "Cmax", "setting": "[3]; 180 mg, with ITZ, n=21", "value": 0.964, "unit": "µg/mL"}, {"measurement": "half-life", "setting": "[3]; 180 mg, with ITZ, n=21", "value": 15.9, "unit": "h"}, {"measurement": "AUC(0-t)", "setting": "[3]; fasted with ITZ 200 mg once daily, n=21", "value": 16.5, "unit": "µg·h/mL"}, {"measurement": "Hypersensitivity reactions", "setting": "[4]; UP0077", "value": 2, "unit": "n"}, {"measurement": "Any related TEAE (considered related to study medication)", "setting": "[4]; [5]", "value": "4 (57) n (%)"}, {"measurement": "Related TEAE Glomerular filtration rate decreased", "setting": "[4]; [5]", "value": "0 n (%)"}, {"measurement": "Related TEAE Headache", "setting": "[4]; [5]", "value": "3 (43) n (%)"}, {"measurement": "Related TEAE Hypotension", "setting": "[4]; [5]", "value": "0 n (%)"}, {"measurement": "TEAE Glomerular filtration rate decreased", "setting": "[4]; [5]", "value": "0 n (%) […]"}, {"measurement": "TEAE Hypotension", "setting": "[4]; [5]", "value": "0 n (%) […]"}, {"measurement": "TEAE Post-lumbar puncture syndrome", "setting": "[4]; [5]", "value": "0 n (%) […]"}, {"measurement": "TEAE Syncope", "setting": "[4]; [5]", "value": "0 n (%) […]"}, {"measurement": "Discontinuations due to TEAEs", "setting": "[4]; UP0077, UCB0599 360 mg/day group", "value": 1, "unit": "n"}, {"measurement": "Any related TEAE (considered related to study medication)", "setting": "[4]; [6]", "value": "5 (36) n (%)"}, {"measurement": "Related TEAE Glomerular filtration rate decreased", "setting": "[4]; [6]", "value": "2 (14) n (%)"}, {"measurement": "Related TEAE Headache", "setting": "[4]; [6]", "value": "2 (14) n (%)"}, {"measurement": "Related TEAE Hypotension", "setting": "[4]; [6]", "value": "2 (14) n (%)"}, {"measurement": "TEAE Syncope", "setting": "[4]; [6]", "value": "0 n (%) […]"}, {"measurement": "Any related TEAE (considered related to study medication)", "setting": "[4]; UP0077, total UCB0599 N=21", "value": "9 (43) n (%)"}, {"measurement": "Related TEAE Glomerular filtration rate decreased", "setting": "[4]; UP0077, total UCB0599 N=21", "value": "2 (10) n (%)"}, {"measurement": "Related TEAE Headache", "setting": "[4]; UP0077, total UCB0599 N=21", "value": "5 (24) n (%)"}, {"measurement": "Related TEAE Hypotension", "setting": "[4]; UP0077, total UCB0599 N=21", "value": "2 (10) n (%)"}, {"measurement": "TEAE Syncope", "setting": "[4]; UP0077, total UCB0599 N=21", "value": "0 n (%) […]"}, {"measurement": "Participants reporting TEAEs", "setting": "[4]; UP0077, total UCB0599 group", "value": 81, "unit": "%"}, {"measurement": "Treatment‐related adverse events, participants", "setting": "[4]; UP0077, total UCB0599 group", "value": 43, "unit": "%"}]}]}
